# Laboratory results published in article PMC12136788.
# The list shows a part of the results.
# B1: 87797516_87810895_2362_CDS_ENSG00000008277_ENST00000398209|human|control|control (ssRNA)
# RNA: GGGAGUUCUACAGUCCGACGAUCCCCAUUUUCACAGAUGUCUGAAAUAUGUUUUGUGUCUGGAAUCCUUUCACUCCAAGAAUGAGAGAGCCCAUUUGACCUCUGUUCUCGAUAGUUUUUAUAACCCCACGCAGUUAUUCCUAACAACAGAGGAUUGAGCAUCA
# B2: 3061171_3062207_408_CDS_ENSG00000104964_ENST00000327141|human|control|control (ssRNA)
# RNA: GGGAGUUCUACAGUCCGACGAUCUUGCAGUAGCUGAAAUUCGUCUUUGAUGCGGUCGCAGGAGUCCGAGGUGGUGAAUUUGAGUUGCUGGGGUAGGUGCGAGGAGCCCGAAUGCCUGCUUUGUGGAAACAUCAUGUCAAUCGCCAACAGAGGAUUGAGCAUCA
# B3: chr16:94690093:94690094:+_ENSMUSG00000040785_ENSMUST00000117648|mus_hu|mus_mus_mus_hu_True|18_18 (ssRNA)
# RNA: GGGAGUUCUACAGUCCGACGAUCGGGCUGGGAUGACGGACACACAGCCUCGAUUCCAGGGGGAAAAAGUCUUAGUCGAUACUAAUUAAAAAGUGUUAAUGAUUUUUGAAAAUCAGAUGUAGAUUAAAAAAGAUGAAAAGCAAACAACAGAGGAUUGAGCAUCA
# B4: chr3:9412954:9412955:+_ENSG00000134077_ENST00000452837|hu_mus|hu_hu_hu_mus_False|8_58 (ssRNA)
# RNA: GGGAGUUCUACAGUCCGACGAUCGGUUGAUAUCUCUUCUUUGAUGGCUGGAUUUUCAUAAUAGUCCAAGAUAUGUGAAUCUAAAGCGCUGCUGGCAUGCUUUUUCUUACCAUCUUUCUCAUCUGCUUUGACUUCUUGUCCACACAACAGAGGAUUGAGCAUCA
# B5: chr17:60770872:60770873:+_ENSG00000011028_ENST00000303375|hu_hu|hu_hu_hu_mus_True|48_98 (ssRNA)
# RNA: GGGAGUUCUACAGUCCGACGAUCUCUUUAAAAAAAAUUCCUUUUUUACAAACAAUAAUAGCACAUUUCGAGAAUCAAGAACUACAAAGAAAGGGCCGCUUUGAGUUUUUGUUCACAUCGUCCUGCACUGGGACACGGGGACUGCAACAGAGGAUUGAGCAUCA
# B6: chr10:80587187:80587188:+_ENSMUSG00000035027_ENSMUST00000143517|mus_mus|FALSE|FALSE (ssRNA)
# RNA: GGGAGUUCUACAGUCCGACGAUCGUGCAAGAGCAGCCAGCAGUGUGGUGGACGGCACCUGCUUGGACAACCUGGCUGGAGCAUGUGAAGCCCCACAUGGUGGCUUCCUUGGGGCAUCUGAAAAAGGAAUACUUUUGUCAUCCCCAACAGAGGAUUGAGCAUCA
# B7: 128107968_128108088_1263_CDS_ENSMUSG00000049858_ENSMUST00000054764|mouse|control|control (ssRNA)
# RNA: GGGAGUUCUACAGUCCGACGAUCAAAGUUUACCGUGUCCCAGUCCACAGAUGGAGAAAAGCCUUUGUAAUCCCGCCUCUGCCAGUGACUAUAACUCUCCUCUGAUUCCACACUCACUCUGCCGAGCCAUUUGACAUGACGGGCCAACAGAGGAUUGAGCAUCA
# B8: chr2:198351390:198351391:-_ENSG00000144381_ENST00000345042|hu_hu|hu_hu_hu_mus_False|88_88 (ssRNA)
# RNA: GGGAGUUCUACAGUCCGACGAUCUCAUUCCCACCCUCCACAGAAAGGCUGCUUAACAACUCUCAUGUGGUGACACAGCGCUACAGUCCUGAUGCUCACAGAACAGUAGAGAUGCCUCAGUGAUUUAAGUUGAAAGCAGGACACCAACAGAGGAUUGAGCAUCA
# B9: chr5:134143580:134143581:+_ENSG00000145833_ENST00000354283|hu_hu|motif|central (ssRNA)
# RNA: GGGAGUUCUACAGUCCGACGAUCUCCUGCUCUUCCAGUCCGCCCUGCUCUGUGUACAUAAUCCUCAUAAUGGUUGGGGCAGCGGUAAUUUACUACAAGAAUCAGAUGUUUCACAUCUAGACCUCGGGCAGCAACAGAGGUAGCCAACAGAGGAUUGAGCAUCA
# B10: 25101282_25103994_528_CDS_ENSMUSG00000001833_ENSMUST00000165594|mouse|control|control (ssRNA)
# RNA: GGGAGUUCUACAGUCCGACGAUCAAUUUCUUUCAUUAUCUGCUUUUUAAACUGUUGGCAUUCCUCUGGUGUAAGUGUGUCUGCUUUGGCAAUUAAUGGGAUGAUAUUCACUUUUUCAUGCAAACGUUUCAUAAACUCAAUGUCCAACAGAGGAUUGAGCAUCA
# B11: chr18:42480448:42480449:+_ENSMUSG00000024491_ENSMUST00000091920|mus_mus|motif|central (ssRNA)
# RNA: GGGAGUUCUACAGUCCGACGAUCGAAGUGUUCGUUGAGCUUGGUAAUGUUGUUCAAUUCCUGGGGGAUUUUUUUCACCUCGGGUUUGGUGUUUGUAUAAUGAUUCUUCCUCAGGAAGCCUGGUUUACUUUGAUUGUUGUUCCCCAACAGAGGAUUGAGCAUCA
# B12: 156518519_156521367_705_CDS_ENSG00000105983_ENST00000359422|human|control|control (ssRNA)
# RNA: GGGAGUUCUACAGUCCGACGAUCUAUUCCAGGCCCCCUUGUUCCUUUUGGCAUUGCUGUUUCAUCAACCAAUAGGCAAAGAAUAUUACAAGCCACCAAGAGGACCGAGAUGGAUGUCUCAAUAAGAAGGAGAACCAUAACAGCCAACAGAGGAUUGAGCAUCA
# B13: chr8:74858975:74858976:-_ENSG00000154582_ENST00000284811|hu_mus|hu_hu_hu_mus_True|1_108 (ssRNA)
# RNA: GGGAGUUCUACAGUCCGACGAUCGACCUUGUACGUAAAAUACAUGCACACUUUUGAUAGCACAUGUGAGGGGAUCUCUCUAAAAUUGACCUCGUUGGUUUCAUUCUCAGCAAACUGACCUGGACCACUCAACAUAGCUUUUAUCAACAGAGGAUUGAGCAUCA
# B14: chr14:78183846:78183847:+_ENSG00000119705_ENST00000557342|hu_hu|hu_hu_hu_mus_False|78_78 (ssRNA)
# RNA: GGGAGUUCUACAGUCCGACGAUCUCUCAGAAAUCUUUCUUCAUCAGAUGUUUGAGCUGUUUGCGGAGCCUUUGCUCUUUGAGCUUGAACGUGGAUCUAUGGGAGGGAAAGCACUGUCAGAAAAGGUAAUUUUUUUUUUAAAGACAACAGAGGAUUGAGCAUCA
# B15: chr4:76721835:76721836:+_ENSG00000138768_ENST00000264904|hu_mus|hu_hu_hu_mus_True|88_98 (ssRNA)
# RNA: GGGAGUUCUACAGUCCGACGAUCGUUUGGCUGGGGUUCUGAGAUGCUCUGGAAUACUAACUCAUGUUUGCUAAUAAAUCCUAGUUUCUCUAUGAAAUUCUCUUUGCCAAUCCUCUUCUCUAUUAGUUGCUUUAGUUUCUCUUUCAACAGAGGAUUGAGCAUCA
# B16: chr4:107908409:107908410:-_ENSMUSG00000034636_ENSMUST00000043616|mus_mus|FALSE|FALSE (ssRNA)
# RNA: GGGAGUUCUACAGUCCGACGAUCUGAAACUGUAGAAUUUCAAGCACAAGUUAAGUUCAAACACUGAGAGAGAGAUUCCCUAAGAGACAAUAUUGAAGGAAGACCUUUCUUGCCUCAUAAGUUAAAAAUCACAAAACAAAUCAGCAACAGAGGAUUGAGCAUCA
# B17: chr11:99071305:99071306:-_ENSMUSG00000037935_ENSMUST00000103133|mus_hu|FALSE|FALSE (ssRNA)
# RNA: GGGAGUUCUACAGUCCGACGAUCAAGCCUUUGGUGGUGUGAUAUGGACAAGAAAAAAAAUUAAUACACAAACCACGUAACACCAUUAAAACCAAAAAACAUUUUUUCAUUAAAAAAAGUAUUUAGAACACACAAAACAAGGCACAACAGAGGAUUGAGCAUCA
# B18: chr1:58468927:58468928:-_ENSMUSG00000026034_ENSMUST00000148330|mus_mus|FALSE|FALSE (ssRNA)
# RNA: GGGAGUUCUACAGUCCGACGAUCAUUCUAUAAUUACUGAAAGAUGUUAUUUGGUUUGGCCAUGUAUUUAAUAAAGCAUCUAAAAAACAUAAAAUGUUUUACAAAUUAAGCUAUACAAAAUAACUUAAUUAAAAGCUAGACUGACAACAGAGGAUUGAGCAUCA
# B19: chrX:71549762:71549763:+_ENSMUSG00000019087_ENSMUST00000019231|mus_mus|mus_mus_mus_hu_False|8_28 (ssRNA)
# RNA: GGGAGUUCUACAGUCCGACGAUCAAACCCGUGUACUUCUUAUUGUUAGCACAACAUCACCAGAAAACGAUAACGACAGCCAAGCAGGACAGACAGUUAAGUAGUACUUCCACACCUCCAAACUCAGAGGAACCUCAAACCUUACAACAGAGGAUUGAGCAUCA
# B20: chr4:174295105:174295106:+_ENSG00000164105_ENST00000296504|hu_mus|FALSE|FALSE (ssRNA)
# RNA: GGGAGUUCUACAGUCCGACGAUCUUGUGCUUUAUUUAGACCUGGUCUGGUUGGAAGCUUGAAGUGUCUUUUGUAUCUUCUAAGUGUAUUUACUUGUAAUUGGUACAAAUCAACCUCUGGAGUGUCGAUGUCCUGAACAGGCGACAACAGAGGAUUGAGCAUCA
# B21: chr22:19452774:19452775:-_ENSG00000070010_ENST00000399523|hu_hu|hu_hu_hu_mus_False|1_48 (ssRNA)
# RNA: GGGAGUUCUACAGUCCGACGAUCCUUCUCAUUGUAGUUGAUAGCAAUCACAUCUCCAGUCGUCAGACAGGCGAAGUUUCUCAAUGCGUUUUCUAAUACCGCUUUAGGGUUGGUAAUAUCCAGGAAGUCUGGGCUCUGAGGUUGCAACAGAGGAUUGAGCAUCA
# B22: 225707191_225718299_805_CDS_ENSG00000154380_ENST00000366843|human|control|control (ssRNA)
# RNA: GGGAGUUCUACAGUCCGACGAUCCCUUUCUCUUUCCAUUCUUUCUCGCUCCAGCCUUUCCCGCUCCAGCUCCUUUUGCCGUUGCUGUUCUUGUAGUUGUCUUCUUUGAAUUUCCAAUUCUUCUUGGGAUGGGCCAUUUUGAACCAACAGAGGAUUGAGCAUCA
# Molecular target: T1, UNK ZnF1-3 (human, UniProt Q9C0B0 31-174)
# T1 sequence: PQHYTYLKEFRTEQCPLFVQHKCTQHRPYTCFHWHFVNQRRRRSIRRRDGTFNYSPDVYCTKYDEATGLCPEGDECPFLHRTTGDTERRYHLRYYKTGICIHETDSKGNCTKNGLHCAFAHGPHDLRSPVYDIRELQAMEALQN
# Experiment: nsRBNS (natural sequence RNA bind-n-seq); RBNS binding buffer (assumed for nsRBNS): 25 mM Tris pH 7.5, 150 mM KCl, 3 mM MgCl2, 0.01% Triton X-100, 500 ug/ml BSA, 20 U/ml SUPERase-In, 4 C; UNK is unkempt and MSI1 is Musashi-1; names of the RNAs are library labels; protein concentration not given here; high values mean tight binding
row,Binder,binding signal
1,B1,0.814 enrichment R
2,B2,1.19 enrichment R
3,B3,2.36 enrichment R
4,B4,0.306 enrichment R
5,B5,1.65 enrichment R
6,B6,1.37 enrichment R
7,B7,1.12 enrichment R
8,B8,1.14 enrichment R
9,B9,1.88 enrichment R
10,B10,0.567 enrichment R
11,B11,0.4 enrichment R
12,B12,1.08 enrichment R
13,B13,0.804 enrichment R
14,B14,1.61 enrichment R
15,B15,0.414 enrichment R
16,B16,1.03 enrichment R
17,B17,2.43 enrichment R
18,B18,0.967 enrichment R
19,B19,1.43 enrichment R
20,B20,0.475 enrichment R
21,B21,0.724 enrichment R
22,B22,0.249 enrichment R
